Reference: the supplement of paper PMC11417369
The other results are listed elsewhere or left out.

System: PfHDP1 homeodomain (GST-tagged)
Assay: gcPBM binding intensity (ln(normalized median fluorescence intensity)); higher = stronger DNA binding
Method in brief: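 After 1 h on an Agilent 4 × 180k array of primer-extended double-stranded 36-bp intergenic genomic probes and negative controls, bound GST-tagged P. falciparum DNA-binding domains were detected with Alexa488 anti-GST antibody and scanned at 488 nm. The domains had been expressed in E. coli, and binding took place in 1× PBS with 1% milk, 0.2 mg/ml BSA, 0.5% salmon testes DNA and 0.03% Triton X-100. Binding intensity is the highest Masliner-normalised natural-log median intensity across replicate spots of either probe orientation.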

First: TATATTTATACTTATACACACATTATTGAATTAACC [CACACA_site934]
Second: TATAGGTATTTGTATACACACAAATGTATATATCTA [CACACA_site6713]
The “gcPBM binding intensity (ln)” value of the first is higher: 6.87 for the first, 6.21 for the second.

Going from “AGTGTAAGCTAAGTGGTGCGTTGAATAAGGTTTTTT [GTGCAC_site9951]” to “AAAAAATATGCATATACACACATATGTATAAATAAC [CACACA_site7090]”, the “gcPBM binding intensity (ln)” value rises from 7.09 to 7.4.

Compared with “CTTTATATATTTTATTGTACTTAAAAAAAAAAAAAA [XGTACX_site2134]”, “AAAATATTTATTCCTAGTACTTACCATTATATATAT [XGTACX_site363]” is higher in “gcPBM binding intensity (ln)” value: 6.46 for the first, 6.84 for the second.

First: AAAAAAAAATGAAAAGAAAAAAAAAGAAAAAAGGGA [CACACA_negctrl_site287]
Second: ATTATTTATATTTGGAGTACTTATAATATTTTTATA [XGTACX_site1289]
The “gcPBM binding intensity (ln)” value of the first is lower: 6.32 for the first, 6.67 for the second.

Going from “AAAAAAAAAAAAAAAACACACAAACGCTTTTTTTTT [CACACA_site4545]” to “GGATAAGAGGCATATACACACAATTTAAAAAAATAA [CACACA_site4657]”, the “gcPBM binding intensity (ln)” value falls from 6.73 to 6.63.

First: ATTTTTTTGTTAATTTGTACATAAAATTTTATTTTA [XGTACX_site7007]
Second: ATATTTATTTTATAAAGTACTAAAAAATATATTATA [XGTACX_site8522]
The “gcPBM binding intensity (ln)” value of the first is higher: 6.67 for the first, 6.31 for the second.

Going from “ATGTCATAAAAACATATACACACTTGAAATATAAAA [CACACA_site2329]” to “CATTCCTATTATTATACACACAAATTAAGAATTCAA [CACACA_site787]”, the “gcPBM binding intensity (ln)” value rises from 6.55 to 6.81.

Going from “TATAATATATTCATGTGTACATATATTTCGAACATA [XGTACX_site1754]” to “ATAAATATTGCGTGCACACACATAATATTTATATAT [CACACA_site7136]”, the “gcPBM binding intensity (ln)” value rises from 6.71 to 10.3.

Compared with “CGAAAAATATGTATGAGTACTTATATTTAAACTATA [XGTACX_site1911]”, “ATATGTACAAATTATACACACATGTACAATTATATA [CACACA_site1253]” is higher in “gcPBM binding intensity (ln)” value: 6.26 for the first, 6.91 for the second.

Going from “AAAAAAAAAAAAGAAAAATATATATATAAATAAATA [GTGCAC_negctrl_site569]” to “ATGTCACAATTTTTCACACACAAAATTTATATACAT [CACACA_site2030]”, the “gcPBM binding intensity (ln)” value rises from 6.34 to 6.9.

Compared with “TATGTTTCTATATATACATGCAAGAAGAAATGTACT [TGCATGCA_site891]”, “TCTTAAATTATGATAAAATATAATAAATAAATAAAT [CACACA_negctrl_site1520]” is lower in “gcPBM binding intensity (ln)” value: 6.65 for the first, 6.11 for the second.

Going from “TTGTTTTATACATAGTGTACATATAAAAATTTTTTT [XGTACX_site7549]” to “ATATATATTATAATCTGTACATAAATATATAATAAA [XGTACX_site5425]”, the “gcPBM binding intensity (ln)” value falls from 6.63 to 6.3.

Going from “ATATATAAATATGAAACACACATTCTATTTAATTCG [CACACA_site1450]” to “CAGATAAATAAACACACACACACATATATATATATA [CACACA_site9311]”, the “gcPBM binding intensity (ln)” value rises from 6.19 to 9.25.

Going from “ATTTTCCCTAGAATATGTACACATAGTAAATATTAT [XGTACX_site7499]” to “AAATAAAGAAATGCAAGTACATACTAAACTAATCCA [XGTACX_site1209]”, the “gcPBM binding intensity (ln)” value rises from 6.34 to 6.57.

Going from TATGTTTTTGAATGAGTGCATTAAAATAAAACATTT to “TTCTTGTATATTCATAGTACATATAATGTCGTGTTA [XGTACX_site8991]”, the “gcPBM binding intensity (ln)” value falls from 8.9 to 6.58.

First: TAATAAGGAATTTATAGTACATATTCATATGTTTTA [XGTACX_site2331]
Second: ATAATATAAATATACACACACACATATATATATATA [CACACA_site2905]
The “gcPBM binding intensity (ln)” value of the first is lower: 5.79 for the first, 9.28 for the second.

First: ATAAAAATTTATATATGTACTTAATTTTTAATTTTT [XGTACX_site7482]
Second: GAATATTAATTCAAGTGTACAAATATATATATAATT [XGTACX_site5103]
The “gcPBM binding intensity (ln)” value of the first is lower: 5.98 for the first, 6.78 for the second.

First: CAAAAGGATAGGCACACACACACACCGATATATATA [CACACA_site8685]
Second: GTTAATATTTTTGGGGGTACTTAAAAAAAAAAAAAA [XGTACX_site1477]
The “gcPBM binding intensity (ln)” value of the first is lower: 6.84 for the first, 7.2 for the second.

Going from “AATTTAAAAAATAATTGTACAAAAAAAAAAAATCAG [XGTACX_site4576]” to TTACATACAATTGGTGTGCACATATATATATATATA, the “gcPBM binding intensity (ln)” value rises from 6.65 to 10.3.

Compared with “TAATTATTTGCCCTTACTCTGAACATTCGGAATTTA [CACACA_negctrl_site1278]”, “TTTTAATATTAAGATGTCTTTTACGTTTATTTTGTA [CACACA_negctrl_site765]” is higher in “gcPBM binding intensity (ln)” value: 6.49 for the first, 6.54 for the second.

Compared with “ATTTACGCGCTTATTACACACACATACAAATAAGGA [CACACA_site9157]”, “TTCTTTTTAAATTACACACACATATAAATATGTATA [CACACA_site7618]” is higher in “gcPBM binding intensity (ln)” value: 7.07 for the first, 7.15 for the second.

Compared with “ATCTGCATATATATATGTACATATTTTAGAATGCAC [XGTACX_site708]”, “TTTTTATAAAATTTTATGAGCTCGGAAAAAATAAAC [GTGCAC_negctrl_site637]” is higher in “gcPBM binding intensity (ln)” value: 6.92 for the first, 7.35 for the second.

First: TTTTTTTTATTTTGTTGTACGCTTATTTGTATATAT [XGTACX_site7325]
Second: TTTATGTGTTATAAATGTACATAATATAATTCGTAT [XGTACX_site3845]
The “gcPBM binding intensity (ln)” value of the first is higher: 6.8 for the first, 6.39 for the second.

Going from “TTATCTATAAATACGAGTACGCAAAATCATATAATA [XGTACX_site2447]” to “CCACAAGTATATAGTAGTACAATTTTTTTCTCTTTA [XGTACX_site4403]”, the “gcPBM binding intensity (ln)” value falls from 6.7 to 6.12.

Going from “ATATAAGGATAACCTAGTACATATTATATGAAACAA [XGTACX_site8459]” to “AAAATAAATAAATAAATATATATATATATATATATA [TGCATGCA_negctrl_site558]”, the “gcPBM binding intensity (ln)” value rises from 6.57 to 9.33.

First: CAATTAAAATGCAACGGTACACATAAAAAAAATAAA [XGTACX_site6216]
Second: AAGGGGAAAAAAAAAAGTACACAAACATAGGATAAT [XGTACX_site377]
The “gcPBM binding intensity (ln)” value of the first is higher: 7.26 for the first, 6.82 for the second.

Going from “TACGGTAAATAGTGTTGTACGATACAATTGTTTTCT [XGTACX_site8118]” to “TGTATTATATGTAAATGTACATTTAATATTTTATAT [XGTACX_site4461]”, the “gcPBM binding intensity (ln)” value rises from 6.21 to 6.7.

Compared with “TATATATAATATATATATATGGAAATTCTTTTAAAT [XGTACX_negctrl_site50]”, “GTATGAAATTATAATAGTACATATAAATAAAAAAAA [XGTACX_site8955]” is lower in “gcPBM binding intensity (ln)” value: 6.68 for the first, 6.59 for the second.

First: GTAGGCATTAAAAAATGTACAAAATATTATGAATTG [XGTACX_site1615]
Second: ACAATATCTAGATACACACACATATCTCTCAATCTA [CACACA_site656]
The “gcPBM binding intensity (ln)” value of the first is lower: 6.32 for the first, 6.63 for the second.

First: TATAATATTCTATATGCATGTACACCATTCTTTATT [TGCATGCA_site688]
Second: TTTTTTTTTATTTGTTGTACGAGGTTTTAAAATTTT [XGTACX_site106]
The “gcPBM binding intensity (ln)” value of the first is higher: 7.24 for the first, 6.64 for the second.

Going from “TAATAAAACATATATACACACATTATATATACATAT [CACACA_site8495]” to “AAAAAGGTTATTGGTACACACATATGTATATAAATA [CACACA_site6402]”, the “gcPBM binding intensity (ln)” value rises from 6.62 to 6.69.

First: TATTGTTATCTTTTATGTACTTAAAAAAATAAATTT [XGTACX_site4233]
Second: TTACAAATAATTTGTTGTACGCTTTTTTTCTTTTTT [XGTACX_site7199]
The “gcPBM binding intensity (ln)” value of the first is lower: 6.34 for the first, 6.52 for the second.

Compared with TATATATATATATATGTGCGCATTACTTTAAGAATA, “GTTAAAAAAAGGAGAGATCTCACACAAATATATATA [GTGCAC_negctrl_site117]” is lower in “gcPBM binding intensity (ln)” value: 9.47 for the first, 6.69 for the second.

First: GGGTGCCAAATTAGCACACACATATATACCTGAATT [CACACA_site5551]
Second: AATATATATGAAAAAAGTACTCAAGGAATAAAAAAA [XGTACX_site7720]
The “gcPBM binding intensity (ln)” value of the first is higher: 7.52 for the first, 7.06 for the second.

Compared with “CATTTAATAATAACAAGTACACAAAGATGTATAACA [XGTACX_site8315]”, “CATAAATACTATATATGTACGTAATTTTTAAAACAT [XGTACX_site7710]” is higher in “gcPBM binding intensity (ln)” value: 6.14 for the first, 6.93 for the second.

Compared with “ATGATAAATATAAGTTGTACATATATCTATGTGCAT [XGTACX_site6010]”, “TAAAAAGTTATATTCACACACATACACATATAAATA [CACACA_site6398]” is lower in “gcPBM binding intensity (ln)” value: 7.21 for the first, 6.63 for the second.

Going from “AAAAAGGAAATAATAACACACATTAATAATTATAAA [CACACA_site3401]” to “TTATTTTTTTTTTTTTGTACACAATTTGACACATTA [XGTACX_site7983]”, the “gcPBM binding intensity (ln)” value rises from 6.45 to 6.68.

First: TTTATTTAATTATGTTGTACATGTAGGATTTATTTT [XGTACX_site7078]
Second: TCTGTTCTTTTTTAATGTACAAGAAATATAAAATTC [XGTACX_site3600]
The “gcPBM binding intensity (ln)” value of the first is higher: 6.47 for the first, 6.17 for the second.

Going from “AATTTTTAGTATATAACATAAAATAAAATAAAATAA [GTGCAC_negctrl_site696]” to “TAATAAATAATGGTTACACACAAAATATAAAACTTA [CACACA_site3544]”, the “gcPBM binding intensity (ln)” value falls from 6.47 to 6.24.

Going from “AATTATAAATCTTGCACACAAAAAAAATAATAAAAA [CACACA_site2434]” to “AAATCTTTGTGTGGATGTACTTTTATAAAAAAGAAT [XGTACX_site3830]”, the “gcPBM binding intensity (ln)” value falls from 8.67 to 6.53.

First: TAAACACATATATAGACATGCAACTAGTTTTTATAA [TGCATGCA_site474]
Second: TTTTAAATATGCAGATGTACATTATAATGTTTTATT [XGTACX_site2079]
The “gcPBM binding intensity (ln)” value of the first is lower: 6.5 for the first, 6.82 for the second.

Compared with “TACATATTTTTATATACACACAATAATTATTATAAA [CACACA_site1659]”, “TATATTTATTATAACACACACATATATATATTATAT [CACACA_site1061]” is lower in “gcPBM binding intensity (ln)” value: 6.75 for the first, 6.66 for the second.

Going from “GATATGTACTAATACACACACATATAGATTTATATA [CACACA_site6610]” to “TACACATACACATACACACGCATAGAAACATACGAA [CACACA_site2137]”, the “gcPBM binding intensity (ln)” value rises from 6.96 to 7.17.

Compared with “TATGAAAATGTTCATACACACATAAAAAAAAAAAAA [CACACA_site3236]”, “AAAAAAAAAAAAAACACACAAACGCTTTTTTTTTTT [CACACA_site686]” is higher in “gcPBM binding intensity (ln)” value: 6.53 for the first, 6.7 for the second.

With “TGTTTGAATAACAAAAAAAAAAAAAAAATTAAAAAA [CACACA_negctrl_site1332]” the “gcPBM binding intensity (ln)” value was 5.71.
